# Reference: the supplement of paper PMC10126150
# Sequences with one replicate were seen in a single cluster, so their values are uncertain.
# Test system: ATP
# Assay: switch fluorescence ratio, 500 uM ATP over buffer (Cy3 cluster intensity, sum of 5 cycles each) (fold (ratio)); higher = stronger signal-on switching upon ATP binding; sequences stand for … in TCGTCGGCAGCGTCAGATGTGTATAAGAGACAGTTTTTTTTTTTTTTTTTTTTTTTTT…TC
# Settings: aptamer strand: ATP DNA aptamer (quencher-CACCTGGGGGAGTATTGCGGAGGAAGG + anchor), 100 nM annealed; ATP concentration: 500 uM; one replicate
# Procedure, shortened: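 The quencher-labelled ATP aptamer, at 100 nM, was annealed to Cy3-labelled switching-strand clusters on a modified Illumina MiSeq flow-cell. The clusters were imaged in selection buffer, then after 15 min with 500 uM ATP at 22 °C, and this buffer/ATP cycle ran five times with NaOH stripping and re-annealing between runs. Per-cluster fluorescence ratios, summed target-cycle over summed buffer-cycle Cy3 intensity, were averaged per switch-domain sequence. Clusters outside 100-1000 RFU were excluded.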
# 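Further: ATP exposure 15 min at 22 °C before imaging.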
row,Sequence,switch fluorescence ratio
1,ATTTGTTCGT,0.978
2,GGGGGCCTT,1.01
3,GAATAAGTTG,1.04
4,AAGAGAAGGG,0.942
5,GGCGTTAAGC,0.985
6,TGATTCACGC,1.04
7,TTAGTACGGA,1.03
8,ATCGTGAACT,1.01
9,ATCGTCTGGT,1.02
10,CTCATAGGGC,1.01
11,CAGCTAACTG,0.971
12,GGTTCTGTG,0.944
13,GAAGTTCTCA,1.04
14,TGGTTTAGCC,0.942
15,GTTATTTAAG,0.981
16,AGTGGGTCAG,0.968
17,ACACGGCGAG,1.02
18,AACCACCCCC,1.78
19,ATCTTCTACA,1.02
20,TTATCGGGGG,1.05
21,AGAACCCAGT,0.976
22,AAGATAGCTT,1.01
23,CACTAGAATT,0.978

row,Sequence,switch fluorescence ratio
1,AAGCGAATTA,1.01
2,AATCGAGCTG,0.984
3,GTTAAATGGA,0.973
4,CCAATTAGGG,0.967
5,TGTCTAATAT,1.03
6,CAAATTGCGT,0.989
7,TAATTATGGA,1
8,AGCTTGCGAC,1.08
9,GAGTAATTAT,1.03
10,CTAAGGGCGT,1.01
11,CGTTACAGGC,1.07
12,TTGACCAGTG,0.963
13,GATGGGCTAC,1.04
14,TCACTATCTT,1
15,GGACTTAGTC,1
16,AAAAACCGAG,1.11
17,GTCTGAGG,0.986
18,TAGACAAGGT,0.965
19,AGGATAACCT,1.52
20,ATTTTGTACG,1.05
21,ATTGCCAGT,1.01
22,ACGTTCTAAC,1.06
23,TTATCCCTA,0.975

row,Sequence,switch fluorescence ratio
1,TCTGCGCGTA,1.05
2,AGTTATGTGA,0.997
3,GTTTGTGCGT,1.01
4,AAAGGGATG,0.973
5,TAAATATCGG,1.02
6,GGAGCGCGG,0.96
7,AAGAGAATTA,1.02
8,TTGCGCGATG,1.08
9,CGTGAAAGGC,1.02
10,AAACTCGTAC,1.17
11,ATATAGCGGA,0.993
12,TAGTATATT,1.03
13,TACGTTCATT,1.1
14,CTGGCTGTAT,0.991
15,TCGATGTGAG,1.03
16,GACAATACCA,1.2
17,TCTGAACCAC,1.19
18,GTGGGTTGTC,0.969
19,CGAGGACTGG,0.997
20,ACTTTAAGGG,1.06
21,GCATGTTGTA,1.01
22,CCAAAGCGCT,0.988
23,CTTGACGCAT,1.89

row,Sequence,switch fluorescence ratio
1,AGGAGATGTT,0.98
2,TACGGACTTC,1.22
3,GGGTTCTTTT,1.03
4,CTTCGTATAA,1.77
5,CGTAGATATT,1.02
6,TTATGTTGCA,0.992
7,CTCCATTTGG,1.01
8,TCCAAATGTT,1
9,TGCAGCCAGT,0.981
10,GGGGTCTATA,0.946
11,CTCAGGTAAG,0.981
12,AAGGGCGTAA,0.993
13,TGAACGTGA,1.06
14,TTAAAGCGTA,1.04
15,CATCTCAACT,1.01
16,TTATACCTAA,1.04
17,CTGATACCCC,1.15
18,TTGACGACGT,1.18
19,AAATTTATCG,0.999
20,TATGGTTGGC,1
21,GGTGAGTGGT,0.992
22,TAAGTTTA,1.03
23,ATTTGTCAAT,1

row,Sequence,switch fluorescence ratio
1,TTCCGCCTAG,1.64
2,ATGTTAGTT,1.02
3,AAGCTGATGT,1.03
4,CGTTGGGTT,0.984
5,TCTCTATCTT,0.968
6,GGCGGATCT,0.999
7,CGTAAGACTT,1.13
8,CGTTGGCTAG,0.979
9,TTTCAACGGC,1.02
10,TCACCTGTAT,1.03
11,GTCTAAGTT,0.989
12,TGATCGATTA,0.984
13,CCAGATGGCT,1.03
14,TGGTGGTCTT,0.976
15,AGGCGTAATG,0.983
16,AATAGGTTAT,0.952
17,CATTTAGGCA,0.995
18,CTCGGGCTGG,1.01
19,CCTAGGTTTT,0.983
20,TATTGGCCCC,0.997
21,GTTTAATGTG,0.994
22,GGCACGGGCC,0.973
23,TCGGATGTAC,1.14

row,Sequence,switch fluorescence ratio
1,AAGATGGGCT,1
2,CTATATGTCT,0.939
3,GACGACCGGA,1.13
4,TGTCAAGCTA,1.48
5,ACCGGGTGAA,1.18
6,CTGGGTTAAT,0.997
7,GGAAAATTT,1.02
8,AGGGACGGGA,1.03
9,CGCAATTGCT,2.32
10,CGGGTTCTGC,1.86
11,CAGAATGCCC,0.985
12,ACGACTGTT,1.12
13,GAGGGATCTA,0.98
14,GGCGTACGA,1.04
15,GCTTTTCCTC,1.08
16,CTGTGCGACG,1.05
17,GTTGAGGGAT,0.938
18,CCAGTTCCTG,0.997
19,TAGAGAAGGG,0.995
20,TGATGGGTGG,0.985
21,CTGATAGACC,0.985
22,GGTGGAAGGC,0.981
23,TCGTAGGGGC,1.05

row,Sequence,switch fluorescence ratio
1,TTTCACCTGC,1.03
2,GCCTGTTATT,1.01
3,ATGGAAGTAC,1.24
4,TTGAAACCGC,1.48
5,ATCGGCTAGG,0.983
6,TATAGTAGCA,1
7,CCGCGGGCG,1.22
8,TTTAATTCGG,0.993
9,CTTGTCTTGA,0.981
10,AGGACGGTTA,1.04
11,TACTTCGTCT,1.03
12,GCCACAGTTA,1.02
13,GCGACCGGTC,1.02
14,TCGATATTTT,0.976
15,AGGTCTTTGT,0.987
16,ATAGTGCCCG,0.997
17,GCAGTGGCG,1.01
18,ATATGACCTA,1
19,ACTCAGGTC,1.06
20,GGGTTCGAGA,0.986
